# Assay results as given in PMC12136788.
# Numbering of substitutions follows the chain as printed. The list shows a part of the results.
# T1: UNK ZnF1-3 (human, UniProt Q9C0B0 31-174)
# T1 sequence: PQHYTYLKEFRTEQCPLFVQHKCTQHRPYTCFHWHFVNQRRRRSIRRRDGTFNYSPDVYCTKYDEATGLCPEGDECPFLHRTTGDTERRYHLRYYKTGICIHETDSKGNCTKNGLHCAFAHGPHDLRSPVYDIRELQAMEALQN
# B1: chr6:86474593:86474594:-_ENSMUSG00000051695_ENSMUST00000053015|mus_mus|FALSE|FALSE (ssRNA)
# RNA: GGGAGUUCUACAGUCCGACGAUCCAUUUCUUAUCGACAAACAGAAAAUAAAAUCCAUGAGCCAAAAAAACCCAAACGAAACUAAAAACAGGGAAAAGCUUAUAAAACUAAAUAUGGAUCCCAGCAUUAACGGCUGAACAGAGACAACAGAGGAUUGAGCAUCA
# B2: chr7:7679991:7679992:-_ENSG00000106399_ENST00000396682|hu_hu|hu_hu_hu_mus_False|68_98 (ssRNA)
# RNA: GGGAGUUCUACAGUCCGACGAUCUGGGAUGAAUCUUUUCCAGCCUCCCCACGAAGCACACGGGCCGGUCGAUGAAUUGUGGUAACAUGCUGGCGUUGACGCGCGCUUUGGGGAGCUGCAUUAUGUCCUCCAUGAUUCUGCCGCCAACAGAGGAUUGAGCAUCA
# B3: 204304137_204304257_4015_3pUTR_ENSG00000173166_ENST00000319170|human|control|control (ssRNA)
# RNA: GGGAGUUCUACAGUCCGACGAUCUGAAAAUAAAGUCCUAUGGUGGCUACCAGUCUCUGGAGAGCUUGGUGUUCUGGUCUCUUUUGGGGGGAGCAGGAGGGGGUCCUCUCCGCAACGUUGCAUAGCCUGAUAUAUGACUGCCUCCAACAGAGGAUUGAGCAUCA
# B4: chr7:141445308:141445309:+_ENSG00000106028_ENST00000265304|hu_hu|hu_hu_hu_mus_False|48_88 (ssRNA)
# RNA: GGGAGUUCUACAGUCCGACGAUCUAUGAUUGUUGUUGCUUGCCGCCUCACAUUAUUUUUAUCCAUGUACUCGCCAUAGUCCACUUUCCCUUCCAAAAAUAUACGAGCCCCCUUUUUCACAUACUGAUAUGCCACAUCUCUGAGCAACAGAGGAUUGAGCAUCA
# B5: chr19:10626314:10626315:-_ENSMUSG00000024667_ENSMUST00000059582|mus_mus|FALSE|FALSE (ssRNA)
# RNA: GGGAGUUCUACAGUCCGACGAUCCAUGCUGGAGAAGGUGGCCAGCGUGAGCAUCUCAAGCAGCAGCUCUGAGCCACAAAAGAAGAGCAAGAUACUGUUCAUGAUAGCUUCUAGGCGGAGCACGUAGGUCUGCAGCAGCAGGUACAACAGAGGAUUGAGCAUCA
# B6: chr12:90018129:90018130:-_ENSG00000070961_ENST00000261173|hu_mus|FALSE|FALSE (ssRNA)
# RNA: GGGAGUUCUACAGUCCGACGAUCCUCUGCAAGCCAUGGUCUUUUCUGAACCCAGAAGGUAUCGAUCACAAAAUACAACACUAGGAUGAUAACUGUGAUGGCAGACAUCAGCAGACCUGCUUUGCCAAUCUGAACAGCCAGCUUCAACAGAGGAUUGAGCAUCA
# B7: chr7:54825262:54825263:-_ENSG00000132432_ENST00000352861|hu_hu|hu_hu_hu_mus_False|28_98 (ssRNA)
# RNA: GGGAGUUCUACAGUCCGACGAUCCUGCCGGCUGGGCACAAACUGCAGCAUUACCUGAUCCAUGUUUGUUGGAUGGCGGAUUGAGAGCGUAGAGACACGUAGCUCAGGGAGCUUGCUAGCCCAACGGAACCGGAAGCUGGCAACCAACAGAGGAUUGAGCAUCA
# B8: chrX:71549762:71549763:+_ENSMUSG00000019087_ENSMUST00000019231|mus_mus|mus_mus_mus_hu_False|18_88 (ssRNA)
# RNA: GGGAGUUCUACAGUCCGACGAUCAAACCCGUGUACUUCUUAUUGUUACAUCACCCCCACCAGAAAACGAUAACGACAGCCAAGCAGGACAGACAGUUAAGUAGUACUUCCACACUCCGCAAAUUCAGGAGCCCUAUAACCUUACAACAGAGGAUUGAGCAUCA
# B9: chr4:129192164:129192165:+_ENSMUSG00000047945_ENSMUST00000062356|mus_hu|FALSE|FALSE (ssRNA)
# RNA: GGGAGUUCUACAGUCCGACGAUCAGAAUCACCCCCACCCUCCUUCCGAUUUCUCUUGAAGGACAGGCCGCUCAAUUUGAAAGGCUUCUUGAAAGAGAAUUUCUUCUUCUUCUUGGGGGUCUCCUUGGGGGGGACCUCCCCCUUCAACAGAGGAUUGAGCAUCA
# B10: chr19:8913615:8913616:-_ENSMUSG00000071658_ENSMUST00000096259|mus_hu|mus_mus_mus_hu_False|38_88 (ssRNA)
# RNA: GGGAGUUCUACAGUCCGACGAUCAGGGUACCAAAACCUUCUGCCUGAGAUAGGUGCCCCACCCAGUAGGGAGUUGCAGCUGAAAGUAUCUGAUGCACUGACAGUUACUAUACGAAAGGAGGCCCCUGGGGAGGGCCAGGCCAGCAACAGAGGAUUGAGCAUCA
# B11: chr1:130485734:130485735:-_ENSMUSG00000045382_ENSMUST00000052172|mus_mus|mus_mus_mus_hu_False|68_78 (ssRNA)
# RNA: GGGAGUUCUACAGUCCGACGAUCGAUGAAGGAGUCGAUGCUGAUCCCAAUGUAGUAUGGCAGCCAGCAGGCAAAGAAAGCCAGGAUGAGGAUGACUGUGGUCUUGAGGGCCUUGCGCUUCUGGUGGCCCUUGGAGUGUGACAGCAACAGAGGAUUGAGCAUCA
# B12: chr7:7679991:7679992:-_ENSG00000106399_ENST00000396682|hu_hu|hu_hu_hu_mus_False|78_78 (ssRNA)
# RNA: B2 RNA with C44U, C58G, G61A, C65U, G66U, G73A, A74U, U76C
# B13: chr2:62099399:62099400:-_ENSG00000115484_ENST00000544079|hu_mus|FALSE|FALSE (ssRNA)
# RNA: GGGAGUUCUACAGUCCGACGAUCGUAGGACUCCAUACCACUCAGUGUUCGGGAGUACUCUGUCAGUCUGAGGGCCAGCUCUAUUUCUGGAGCACCACCUCCUGCAAUAAGAGCUCUUUUCUUUACUAAGCAUCGGAUGACACACAACAGAGGAUUGAGCAUCA
# B14: chr1:52991732:52991733:-_ENSG00000134744_ENST00000257177|hu_mus|FALSE|FALSE (ssRNA)
# RNA: GGGAGUUCUACAGUCCGACGAUCUUUAGGGCCUGGAACACUGGCAGCGUUUACUUUACAUGAUUUAGCUUCUGUUUUUUCUAUACAAAUAUCAUUUUGCUUGGUUUUUUUACUACUAUUUCUAUUCAGAGAGCUGGUCCCAAUCAACAGAGGAUUGAGCAUCA
# B15: 65399146_65399266_674_3pUTR_ENSG00000258289_ENST00000359118|human|control|control (ssRNA)
# RNA: GGGAGUUCUACAGUCCGACGAUCGAGUCCUGGUUCCUUUUAUUGGAAACCAAAAUCUGGGCACCAGGUGUGCUCCCAUUCUAGUUGUUUUCUGACCACAUAACUGCUAACAAAGAUGCUUCACUCUGGCUACACUGAUGUGAACAACAGAGGAUUGAGCAUCA
# B16: chr7:138189096:138189097:+_ENSG00000122779_ENST00000415680|hu_hu|FALSE|FALSE (ssRNA)
# RNA: GGGAGUUCUACAGUCCGACGAUCUGACUUUUCUACUGUACUGCUGGGAACCUCAGUAGUGUCCUUCACAAAAAAGUUAUCUAUGAUGUGUCUCUCUGCACAUUCUUGGCUGCAAACUGGGCAACGAAUGACUCCAACUUGGGUCAACAGAGGAUUGAGCAUCA
# B17: chr17:13113627:13113628:+_ENSMUSG00000068039_ENSMUST00000151287|mus_mus|motif|central (ssRNA)
# RNA: GGGAGUUCUACAGUCCGACGAUCAAGCUUCAUUUUUGUUUUCUGCAGGCUGAAGUCAAGACAAGCAAUUUUUGCAUUAACGGUUCUCUUGGGCAUGCCCUGAGAUCCAACCACACAAUUGAGCGCAUAGCCAUUGAUCAGCAUCAACAGAGGAUUGAGCAUCA
# B18: 63119758_63128743_190_CDS_ENSG00000116641_ENST00000251157|human|control|control (ssRNA)
# RNA: GGGAGUUCUACAGUCCGACGAUCAUCCACAGCCAAAGGAUGAGUAAUGAGGUAAUCUUCCAAAUCCACUGGAUCUACUGCUUCGGUAAGGGGCACUGUGGUGUGAUGGGAUAUAUUGCCAACAAUAUUAAGGUUUUUGAGCAGCAACAGAGGAUUGAGCAUCA
# B19: chr10:33214929:33214930:-_ENSG00000150093_ENST00000302278|hu_hu|hu_hu_hu_mus_True|8_78 (ssRNA)
# RNA: GGGAGUUCUACAGUCCGACGAUCAACAAGUUCAUUGAAAAACUCUCCUCUGUCAGUAAGACUGAGCACAUUUUUGUAGCUAAAUGGGCUGGUGCAGUUUUGUUCACUUGUACAAGGAUUUCUUAGCUUAGCUGGUGUUGUGCUCAACAGAGGAUUGAGCAUCA
# B20: chr1:204511919:204511920:+_ENSG00000198625_ENST00000367182|hu_hu|FALSE|FALSE (ssRNA)
# RNA: GGGAGUUCUACAGUCCGACGAUCGCCAGCUACAUCCCACUCCUCAAAUCCAAGGUCCAGCCUAGAUGUUUCAUCUUGGGCUAAAUUUUCAAUUAAGUCUUCAUCUUCUCUAGAAUGUAUGCAUUUAUGCUCUGAGGUAGGCAGCAACAGAGGAUUGAGCAUCA
# B21: chr2:131139019:131139020:-_ENSMUSG00000048911_ENSMUST00000059372|mus_hu|FALSE|FALSE (ssRNA)
# RNA: GGGAGUUCUACAGUCCGACGAUCAAUAUAUAUGUUGAGAGGCAGAUUCUGGAAUCCAAUAUUAGGCAUCCUGAAGUUGUAAUGUGGGAAAUCCGAGCUCAUGGAUGAACUUCCCUCCGUGAUCUCCAGGUGACAGCCCCGCUCCAACAGAGGAUUGAGCAUCA
# B22: chr9:14812383:14812384:-_ENSMUSG00000031934_ENSMUST00000164273|mus_mus|mus_mus_mus_hu_True|1_38 (ssRNA)
# RNA: GGGAGUUCUACAGUCCGACGAUCAUAGCCCAGGUAGAUACACGCUAACAGUAUAAUGAUGAGUGUCAGCAGGCGGCAGCUAAUGUACUUGAUGAUUAAAUGACUAGAAUUUUUCUUUGUCUUCAAGUACUGCUCCACGAUUGGCAACAGAGGAUUGAGCAUCA
# Molecular target: T1, UNK ZnF1-3
# Experiment: nsRBNS (natural sequence RNA bind-n-seq); RBNS binding buffer (assumed for nsRBNS): 25 mM Tris pH 7.5, 150 mM KCl, 3 mM MgCl2, 0.01% Triton X-100, 500 ug/ml BSA, 20 U/ml SUPERase-In, 4 C; UNK is unkempt and MSI1 is Musashi-1; names of the RNAs are library labels; protein concentration not given here; high values mean tight binding
row,Binder,binding signal [enrichment R]
1,B1,3.23
2,B2,0.532
3,B3,1.35
4,B4,0.897
5,B5,2.34
6,B6,1.19
7,B7,1.05
8,B8,1.88
9,B9,1.38
10,B10,1.17
11,B11,1.41
12,B12,0.684
13,B13,0.997
14,B14,0.722
15,B15,0.74
16,B16,0.798
17,B17,0.7
18,B18,2.51
19,B19,1.26
20,B20,1.02
21,B21,0.938
22,B22,0.997
